# PubChem BioAssay (Tox21)
# “And” between values parts separate entries of the source, which are not always exact repeats. Identical values can stand only once. The shares of active, inactive and inconclusive entries below differ from those in the screen. Potencies of inconclusive entries are doubtful fits and often do not repeat. Some compounds were tested as several samples or in several runs, with calls that do not always agree. The source made the active and inactive calls. Calls come from the whole dose curve; as a rule, active = well fitted curve in the direction sought with a large enough effect in the repeat runs; inconclusive = weak or mixed curves; inactive = no such curve, though single readings can be large; an effect the other way counts as inactive or inconclusive.
# How the values were obtained:
# [1] = qHTS RealTime-Glo MT Cell Viability Assay in HepG2 cells - 40 hour (AID 1224870); conditions: RealTime-Glo luminescence; series mostly up to 76.8 µM; note: nearly all actives have a fitted effect of over 50% in size
# Procedure, shortened: (§1)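 HepG2 cells (600/well) mixed with RealTime-Glo MT reagent, settled 5 h at 37 C/5% CO2 before compound addition. Nonlytic NanoLuc luminescence from viable-cell prosubstrate reduction read repeatedly during 40 h treatment at 37 C.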
# [2] = A CellTox Green Cytotoxicity Assay to monitor cytotoxicity in HEK293 cells - 40 hour (AID 1224871); conditions: CellTox Green fluorescence; series mostly up to 76.8 µM; note: nearly all actives have a fitted effect of over 45% in size
# Procedure, shortened: (§2)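 Seeding of HEK293 cells together with cytotoxicity dye preceded a 5 h incubation at 37 C/5% CO2. Test compounds in DMSO were then added and fluorescence monitored across 40 h.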
# [3] = qHTS RealTime-Glo MT Cell Viability Assay in HEK293 cells - 16 hour (AID 1224872); conditions: RealTime-Glo luminescence; series mostly up to 76.8 µM; note: nearly all actives have a fitted effect of over 50% in size
# Procedure, shortened: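 Assay medium contained NanoLuc luciferase plus cell-permeant prosubstrate, added with HEK293 cells at 600 cells/well. After 5 h at 37 C/5% CO2 compounds were added; plates stayed at 37 C for 40 h with serial luminescence reads.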
# [4] = qHTS RealTime-Glo MT Cell Viability Assay in HepG2 cells - 8 hour (AID 1224873); conditions: RealTime-Glo luminescence; series mostly up to 76.8 µM; note: nearly all actives have a fitted effect of over 55% in size
# Procedure, shortened: as §1
# [5] = A CellTox Green Cytotoxicity Assay to monitor cytotoxicity in HepG2 cells - 16 hour (AID 1224876); conditions: CellTox Green fluorescence; series mostly up to 76.8 µM; note: nearly all actives have a fitted effect of over 45% in size
# Procedure, shortened: (§3)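 Nonlytic assay: viable cells exclude the dye, so fluorescence scales with cell death. HepG2 at 600 cells/well, compounds added after 5 h, signal read across 40 h.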
# [6] = qHTS RealTime-Glo MT Cell Viability Assay in HepG2 cells - 32 hour (AID 1224877); conditions: RealTime-Glo luminescence; series mostly up to 76.8 µM; note: nearly all actives have a fitted effect of over 55% in size
# Procedure, shortened: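 qHTS, HepG2, 600 cells/well, RealTime-Glo (NanoLuc + prosubstrate) added with cells; 5 h preincubation; DMSO compound addition; 37 C; luminescence at 0/8/16/24/32/40 h.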
# [7] = A CellTox Green Cytotoxicity Assay to monitor cytotoxicity in HepG2 cells - 24 hour (AID 1224878); conditions: CellTox Green fluorescence; series mostly up to 76.8 µM; note: nearly all actives have a fitted effect of over 45% in size
# Procedure, shortened: as §3
# [8] = qHTS RealTime-Glo MT Cell Viability Assay in HEK293 cells - 40 hour (AID 1224874); conditions: RealTime-Glo luminescence; max response: stronger effect = lower value; note: nearly all actives have a fitted effect of over 50% in size; for max response: % is set by controls: 0 for no effect and ±100 for the full control effect
# Procedure, shortened: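 Tox21 screen in HEK293 using RealTime-Glo MT chemistry, with cells and reagent co-dispensed. Luminescence proportional to viable cell number was captured at intervals during 40 h compound exposure at 37 C.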
# [9] = A CellTox Green Cytotoxicity Assay to monitor cytotoxicity in HepG2 cells - 40 hour (AID 1224879); conditions: CellTox Green fluorescence; series mostly up to 76.8 µM; note: nearly all actives have a fitted effect of over 40% in size
# Procedure, shortened: as §3
# [10] = A CellTox Green Cytotoxicity Assay to monitor cytotoxicity in HEK293 cells - 24 hour (AID 1224875); conditions: CellTox Green fluorescence; series mostly up to 76.8 µM; note: nearly all actives have a fitted effect of over 45% in size
# Procedure, shortened: as §2
# Potency is the fitted concentration of half-maximal effect; tags give direction and shape of the fitted curve.
Structure (SMILES),Potency [1],Potency [2],Potency [3],Potency [4],Potency [5],Potency [6],Potency [7],Potency [8],max response [8],Potency [9],Potency [10]
COC(=O)C1=C(C)NC(C)=C(C(=O)OCCN(C)Cc2ccccc2)C1c1cccc([N+](=O)[O-])c1 (configuration not stated),"inconclusive: 21.3 µM [falling, partial curve]","inconclusive: 61.3 µM [activator, single point]",active: 21.7 µM and active: 16.9 µM,active: 24.4 µM and active: 19 µM,"inconclusive: 61.3 µM [activator, single point]","inconclusive: 19 µM [cytotoxic, partial curve]",active: 48.7 µM,,,,
CNCCCN1c2ccccc2CCc2ccccc21,"inconclusive: 26.8 µM [falling, single point]","inconclusive: 26.8 µM [activator, single point]","inconclusive: 26.8 µM [cytotoxic, single point]",,,"inconclusive: 26.8 µM [cytotoxic, single point]",active: 26.8 µM,"inconclusive: 26.8 µM [cytotoxic, single point]",,,
CCCCCCCC#N,inactive,,,,,,,,,,
CN(C)c1ccc(N=Nc2ccccc2C(=O)O)cc1,"inconclusive: 54.9 µM [falling, single point]","inconclusive: 21.9 µM [activator, partial curve, poor fit]",,"inconclusive: 38.9 µM [falling, partial curve]",,"inconclusive: 49 µM [cytotoxic, single point]",,,inactive: 2%,"inconclusive: 54.9 µM [activator, single point]",
CC(COc1ccccc1)N(CCCl)Cc1ccccc1 (configuration not stated),"inconclusive: 54.9 µM [falling, single point]","active: 49.5 µM and inconclusive: 54.9 µM [activator, single point] and active: 21.3 µM","active: 49.5 µM and active: 49 µM and inconclusive: 23.9 µM [cytotoxic, partial curve]","inconclusive: 54.9 µM [falling, single point]","inconclusive: 55.5 µM [activator, single point] and inconclusive: 54.9 µM [activator, single point]","inconclusive: 44.1 µM [cytotoxic, partial curve, poor fit] and inconclusive: 49 µM [cytotoxic, single point]","inconclusive: 54.9 µM [activator, single point]","inconclusive: 23.9 µM [cytotoxic, partial curve]",,"inconclusive: 54.9 µM [activator, single point] and inconclusive: 26.8 µM [activator, single point]","inconclusive: 55.5 µM [activator, single point] and inconclusive: 61.7 µM [activator, single point]"
COc1ccc2cc1Oc1ccc(cc1)C[C@H]1c3c(cc4c(c3Oc3cc5c(cc3OC)CCN(C)[C@@H]5C2)OCO4)CCN1C,active: 23.9 µM,"inconclusive: 7.56 µM [activator, partial curve, poor fit]","inconclusive: 4.77 µM [cytotoxic, full curve]","inconclusive: 23.9 µM [falling, partial curve]",,,active: 23.9 µM,active: 6.74 µM,,active: 21.3 µM,"inconclusive: 3.79 µM [activator, partial curve, poor fit]"
O=C1NCCN1CCN1CCC(c2cn(-c3ccc(F)cc3)c3ccc(Cl)cc23)CC1,active: 26.8 µM,active: 23.9 µM,active: 23.9 µM,"inconclusive: 23.9 µM [falling, single point]",,active: 26.8 µM,,,,,
OCC(CO)(CO)COCC(CO)(CO)CO,"inconclusive: 54.9 µM [falling, single point]",,,,,,,,,,
CCC1=C[C@@H]2CN(C1)Cc1c([nH]c3ccccc13)[C@@](C(=O)OC)(c1cc3c(cc1OC)N(C)[C@H]1[C@@](O)(C(=O)OC)[C@H](OC(C)=O)[C@]4(CC)C=CCN5CC[C@]31[C@@H]54)C2,"inconclusive: 42.5 µM [falling, partial curve, poor fit]","inconclusive: 26.8 µM [activator, single point]",active: 23.9 µM,"inconclusive: 23.9 µM [falling, partial curve, poor fit]","inconclusive: 30.1 µM [activator, single point]","inconclusive: 9.52 µM [cytotoxic, partial curve]","inconclusive: 26.8 µM [activator, partial curve, poor fit]",active: 0.0067 µM,,,
